In PubChem BioAssay AID1645882 (National Center for Advancing Translational Sciences (NCATS), 2021):
Hit rate of the full screen: of about 16,000 compounds, about 120 (0.75%) were called active. About 4% were inconclusive and are not listed. The call rests on the fitted dose curve; in most records, active means well fitted inhibition curve with a large enough effect; inconclusive means small, poorly fitted or top-dose-only effect; inactive means no such curve, though single readings can be large or run the other way. This is one part of the list.

The compounds below were run against Rap guanine nucleotide exchange factor 3 (Homo sapiens) (UniProt O95398) (assay: Validation qHTS for antagonist of cAMP-regulated guanine nucleotide exchange factor 3 (EPAC1)). Details: EPAC1 Rap1B-BODIPY-GDP exchange, fluorescence; series mostly up to 150 µM; activity change, negative = inhibition: at the top concentration.
Summary of the method: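 Nucleotide exchange followed as fluorescence loss when BODIPY-GDP leaves Rap1B (480 nm excitation, 540 nm emission), read at 5 min intervals over 30 min. Reaction: 100 nM EPAC1, 250 nM RAP1B-BODIPY-GDP, 50 uM GDP; ATA and DMSO define normalization.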
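Further: plate controls were DMSO for no effect and ATA control for full effect; nearly all actives have a fitted effect of over 75% in size.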

Chain of UniProt O95398 (O95398 whole entry, looked up): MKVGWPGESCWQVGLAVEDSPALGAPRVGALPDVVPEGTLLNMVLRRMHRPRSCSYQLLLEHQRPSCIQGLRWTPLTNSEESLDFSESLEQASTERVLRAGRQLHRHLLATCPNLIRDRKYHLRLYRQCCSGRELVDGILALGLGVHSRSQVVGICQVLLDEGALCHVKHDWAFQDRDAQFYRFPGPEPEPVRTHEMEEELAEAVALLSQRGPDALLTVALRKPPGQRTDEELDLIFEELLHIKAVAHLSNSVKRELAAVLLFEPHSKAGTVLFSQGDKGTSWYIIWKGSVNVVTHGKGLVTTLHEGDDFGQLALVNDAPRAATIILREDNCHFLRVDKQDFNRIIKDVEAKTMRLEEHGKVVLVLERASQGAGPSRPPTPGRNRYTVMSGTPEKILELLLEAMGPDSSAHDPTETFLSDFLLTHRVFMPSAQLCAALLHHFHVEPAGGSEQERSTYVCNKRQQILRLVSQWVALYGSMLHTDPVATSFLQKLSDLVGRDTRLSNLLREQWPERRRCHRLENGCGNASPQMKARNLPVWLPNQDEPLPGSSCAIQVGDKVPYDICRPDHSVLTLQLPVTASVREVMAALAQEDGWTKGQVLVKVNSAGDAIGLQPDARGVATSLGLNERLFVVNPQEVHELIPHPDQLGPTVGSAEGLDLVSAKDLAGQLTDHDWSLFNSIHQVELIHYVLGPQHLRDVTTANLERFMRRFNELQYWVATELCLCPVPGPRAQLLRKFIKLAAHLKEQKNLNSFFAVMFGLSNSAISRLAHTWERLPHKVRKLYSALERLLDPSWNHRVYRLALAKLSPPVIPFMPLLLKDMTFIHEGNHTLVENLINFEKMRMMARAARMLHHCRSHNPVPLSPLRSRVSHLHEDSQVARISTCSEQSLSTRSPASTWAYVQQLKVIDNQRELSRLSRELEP

Activity change, negative = inhibition, inactive:
CCCCCCCCCCCC(=O)O[C@H](CC(=O)O)C[N+](C)(C)C 9.8%, COc1ccc(-c2cc(C(=O)N3CCc4c(cnc(C)c4CNC(=O)c4ccsc4)C3)[nH]n2)cc1 13.7%, Cc1nc2cc(NC(=O)[C@@H]3C[C@@H](Sc4ccccn4)CN3Cc3ccccc3)ccc2s1 -3.33%, Cc1cccc2c(C(O)c3c[nH]c4c(C)cccc34)c[nH]c12 -21.1%, CCO[C@H]1[C@H](NC(=O)c2cccnc2)c2ccccc2C12CCN(C(=O)c1ccoc1)CC2 10.7%, COc1cc(OC)c2c(c1Cl)OC1(C2=O)C(O)=CC(=O)CC1C (stereo not given) 5.57%, O=C1NC(=O)C(c2ccccc2)(c2ccccc2)N1, Cc1nc2cnc(N3CCOCC3)nc2n(C)c1=O 4.28%, COc1ccc(CNc2ncncc2-c2cccc(NS(C)(=O)=O)c2)c(OC)c1 -13.8%, NC(=O)NNc1ccccc1, CN1Cc2c(N)cccc2C(c2ccccc2)C1 (stereo not given), Cc1cc2c(cc1C)N[C@]1(C[C@H]3CCC(=O)N4CC[C@@H](C1)[C@@H]34)C(=Nc1ccccc1C)N2 -1.23%, COc1ccc(C2(C(=O)NCC3Cc4cccc(-c5cccnc5)c4O3)CCCC2)cc1 (stereo not given) -12.9%, FC(F)(F)COCC(F)(F)F -0.876%, COc1cccc2c1C(=O)CC(c1ccccc1)O2 (stereo not given) -14.2%, O=C(CN1Cc2ccccc2OC(c2ccsc2)C1)N1CCN(Cc2ccc3c(c2)OCO3)CC1 (stereo not given) -29.7%, COc1ncc2nc(C)c(=O)n(CCc3ccccc3)c2n1 6.32%, CSc1ccc2c(c1)[C@H](N1CCN(C)CC1)Cc1ccccc1S2 -16%, CCC1CN(CCNC(=O)c2ccc(C#CC(C)(C)O)cc2)Cc2cc(OC)ccc2O1 (stereo not given) -3.4%, O=S1(=O)CCOC[C@H](CC2CCCCC2)N1Cc1cccc(Cl)c1 -27.4%, Cc1ccccc1-c1ccc2ncnc(NCCN3CCOCC3)c2c1 4.83%, O=C(c1ccccc1)c1ccc2n1CCC2C(=O)O (stereo not given), CCOC(=O)[C@@](C)(N)Cc1ccc(O)c(O)c1 23.6% [at 75.8 µM], CC(=O)C[C@H]1c2cc(C(F)(F)F)ccc2S(=O)(=O)N1C1CCCCC1 -7.97%, Cc1ccc(C(=O)N2CCOc3ccc(CN4CCN(Cc5ccccn5)CC4)cc3C2)cc1 -2.43%, CNC(=O)[C@H]1O[C@@H](n2cnc3c(NCc4cccc(I)c4)nc(Cl)nc32)[C@H](O)[C@@H]1O 3.46%, COc1cc(=O)n2c(c1C(=O)N(C)Cc1nonc1C)CCN(Cc1cccc(Cl)c1)CC2 15.4%, COc1ccc(OC)c(-c2ccnc(-n3ncc(C(=O)N(C)CCc4ccccn4)c3C)n2)c1 18.1%, CC(=O)N1CCC2(CCCN(Cc3ccccc3)C2)CC1 23.7%, COc1ccc(C(=O)C[n+]2cc(Br)cc(Br)c2)cc1 13.6%, CNCCCCc1cnc(C)c2[nH]c3ccccc3c12 -0.902%, CCOC(=O)NNc1ccc(N(CC)CC(C)O)nn1 (stereo not given) 37.2%, COc1ccccc1C1CN(Cc2cccc3nccnc23)Cc2ccccc2O1 (stereo not given) 3.13%, C#CCC(Cc1cnc2nc(N)nc(N)c2n1)c1ccc(C(=O)N[C@@H](CCC(=O)O)C(=O)O)cc1 (stereo not given in full) 21.7%, O=C(c1cc(C(F)(F)F)cc(C(F)(F)F)c1)N1CCC2(CCCN(c3ccccn3)C2)CC1 -26.9%, O=[N+]([O-])c1cccc2c[nH]nc12 1.79%, Cn1c(=O)c(-c2cc(F)cc(F)c2)nc2cnc(N3CCNCC3)nc21 0.0874%, CC(C)(C)NCC(O)COc1cccc2[nH]c(=O)[nH]c12 (stereo not given), NC(=O)C(=O)N/N=C/c1ccc([N+](=O)[O-])o1 15.3%, NC(Cc1cnc[nH]1)C(=O)Nc1ccc2ccccc2c1 (stereo not given) 17.4%, CN(CC[C@@H](Oc1ccc(-c2ccccc2)cc1)c1ccc(F)cc1)CC(=O)O -0.957%, CCCCCCCCCC(=O)O 5.14%, COc1ccc2c(c1)OC(C)CN(CCNC(=O)c1ccc(-n3cccn3)cc1)C2 (stereo not given) 15%, COCC(=O)N1CCC2(CC1)CCN(c1ccncc1)CC2 13.6%, COCCNc1cc(-c2c(C)noc2C)ncn1 9.01%, OCC1OC(n2cnc3c(NCc4ccco4)ncnc32)C(O)C1O (stereo not given) 8.53%, Cc1noc(C)c1-c1ccc2ncnc(N3CCN(C)CC3)c2c1 3.55%, CN(C)c1ccc(-c2cncnc2Nc2ccccc2)cc1 -1.61%, CN(Cc1ccco1)c1ncnc2ccc(-c3ccoc3)cc12 2.76%, CCCCCN=C(N)N/N=C/c1c[nH]c2ccc(OC)cc12, O=C(Nc1ccccc1)N1CCC2(CC1)CCN(C(=O)c1csnn1)CC2 -6.77%, COc1ccc(S(=O)(=O)N(CCO)c2ccccc2CN(C)C/C=C/c2ccc(Cl)cc2)cc1 1.5%, NS(=O)(=O)c1cccc2c1c([N+](=O)[O-])cc1[nH]c(=O)c(=O)[nH]c12 -17.1%, CCC1(C2CCN(C(=O)c3cc(F)ccc3F)CC2)NC(=O)N(CCc2scnc2C)C1=O (stereo not given) 9.99%, CN1CCN(c2ncc3nc(-c4cc(F)cc(F)c4)c(=O)n(CCC#N)c3n2)CC1 11.6%, C[C@@H](CC(=O)O)[C@@H](N)C(=O)O, OC1C=C2CCN3Cc4cc5c(cc4C(C1O)C23)OCO5 (stereo not given) 8.06%, Cc1ccc2nc(N)[nH]c(=O)c2c1Sc1ccncc1 19.5%, CC(C)(C)c1ccc2c(S(=O)(=O)O)c(C(C)(C)C)ccc2c1 12.2%, OCC1(CO)COC(C(Cl)(Cl)Cl)OC1 2.7%, CC1(C)CC2C1CCC1(C)OC2(C)CCC1O (stereo not given) 0.0893%, CCNc1ncc2nc(-c3cc(F)cc(F)c3)c(=O)n(C3CC3)c2n1 4.91%, CC(NNC(=O)c1ccccc1)c1ccccc1 (stereo not given) 13.5%, CS(=O)(=O)OCC(O)C(O)COS(C)(=O)=O (stereo not given) -9.47%, O=C(C[n+]1cccc2cc(Cl)ccc21)c1ccc(Br)cc1 10.5%, O=C(c1cccc(F)c1)N1CCC2(CC1)CCN(c1ncccn1)CC2 7.34%, CC(N)CCCP(=O)(O)O (stereo not given) -1.45%, CC(=O)N(CC(O)CN(C(C)=O)c1c(I)c(C(=O)NCC(O)CO)c(I)c(C(=O)NCC(O)CO)c1I)c1c(I)c(C(=O)NCC(O)CO)c(I)c(C(=O)NCC(O)CO)c1I (stereo not given) 16.8% [at 75.8 µM], NC(CSCSCC(N)C(=O)O)C(=O)O (stereo not given) 20.1%, Cc1cc(C(=O)Nc2ccccc2-c2nc(CNC(=O)c3cscn3)c(C)o2)c(C)o1 16.7%, CN(C)c1nc(-c2ccoc2)nc2ccccc12 36.5%, Cc1ccccc1-c1nccc(NCCN2CCOCC2)n1 -1.82%, O=C(O)CCCC[C@@H]1SC[C@H]2NC(=O)N[C@@H]12 12.2%, COc1ccccc1CN1CCC2(CC1)CCN(C(=O)c1cccc(F)c1)CC2 13.6%, Cc1cc(C(=O)NCC2CCC3(CCN(Cc4ccc(F)cc4)CC3)O2)n(C)n1 (stereo not given) 16%, CCC(CN)CC(C)CCNCC(O)CNCC(C)CC(CC)CN (stereo not given) 30.6%, Cc1noc(C)c1-c1ccc2ncnc(Nc3ccc(F)cc3)c2c1 -9.07%, O=C(c1cn(C2CCCN(Cc3cccc(Oc4ccccc4)c3)C2)nn1)N1CCCC1 (stereo not given) 7.97%, CC(C(=O)O)c1ccc(C(=O)c2ccccc2)s1 (stereo not given) 12.6% [at 75.8 µM], O=C1CCN(Cc2ccc(-c3ccccc3)cc2)CCN1Cc1ccccn1 -6.88%, CCCCC[C@H](O)/C=C/C=C\CCCCCCCC(=O)O, COc1cc(=O)n2c(c1C(=O)N(C)Cc1nonc1C)CCN(C(=O)c1cc(C)ccc1C)CC2 16.9%, CC(=O)N1CCC2(CC1)CCN(C(c1ccccc1)c1ccccc1)CC2 4.51%, COc1ccccc1N1CCN(CCCC(=O)c2ccc(F)cc2)CC1 6.48%, NC(=O)NS(=O)(=O)c1ccc(N)cc1 9.56%, CN(C)CCc1cc2c(c3c1ccc1ccccc13)OCO2 -0.692%, COCCn1c(=O)c(-c2ccc(F)cc2)nc2cnc(N3CCOCC3)nc21 10.1%, O=P(O)(O)OP(=O)(O)OP(=O)(O)O 11.5%, CN(C)CC/C=C1/c2ccccc2COc2ccc(CC(=O)O)cc21 15.2%, O=C(c1cnccn1)N1CCC2(CC1)CCN(c1ccncc1)CC2 22.9%, CC(C)(C)[C@H]1CCC(=O)N([C@H](CSc2ccc(Br)cc2)Cc2ccccc2)CC1 -9.89%, O=C1NC(CC(=O)N2CCC(n3c(C4CCC4)nc4cccnc43)CC2)c2ccccc21 (stereo not given) 14.6%, Clc1ccc(N2CCN(Cc3cc4ccccn4n3)CC2)cc1 -7.94% [at 75.8 µM], O=C(O)C1=CCCN(CCON=C(c2ccccc2)c2ccccc2)C1, Cn1c(=O)c(-c2ccc(Cl)cc2)nc2cnc(N3CCOCC3)nc21 13.1%, O=S(=O)(O)CC(S)CS (stereo not given) -1.12%, COC(=O)c1c(OCc2ccccn2)cc(=O)n2c1CCN(Cc1ccc3c(c1)CCCN3C)CC2 20%, c1ccc(CN(CC2=NCCN2)c2ccccc2)cc1, O=C(c1ccncc1)N1CCC2(CC1)CCN(c1ccccn1)CC2 7.93%, CCN(c1nc(N)c(C(=O)N=C(N)N)nc1Cl)C(C)C -5.71% [at 75.8 µM], CN(CCO)C(=O)c1cn(C2CCCN(Cc3ccc(C(F)(F)F)cc3)C2)nn1 (stereo not given) 6.83%, CC1CCC(=O)N(CCC#N)CC1 (stereo not given) 14.9%, CCS(=O)(=O)NCc1c(C)ncc2c1CCN(C(=O)c1ccc(F)cc1)C2 0.584%, Nc1ncnc2n[nH]c(Nc3ccc(F)cc3)c12 6.6% [at 75.8 µM], CC(C)C[C@@H](CSc1ccccc1)N1CCN(CC(C)C)CCC1=O -11.3%, CCCCCCCCCCCCC(=O)N1CCCC[C@H]1CNC(=O)[C@@H](N)CCCCN 3.49%, O=c1c(-c2ccc(Cl)cc2)nc2cnc(N3CCOCC3)nc2n1C[C@H]1CCCO1 1.25%, CC(=O)OCC(=O)[C@]1(O)C(C)CC2C3CCC4=CC(=O)C=C[C@@]4(C)[C@]3(F)C(O)C[C@@]21C (stereo not given in full) -7.49%, Cc1c(C)n(Cc2ccccc2)c2ccc(C(=O)OCCN(C)C)cc12 -3.27%, CC(=O)N1CCC2(CCCN(Cc3nccs3)C2)CC1 16.9%
